{"source": "the RNAGym collection of RNA variant scans (doi:10.1073/pnas.2313332121)", "parents": {"B1": {"name": "TPR 5TU (parent)", "chain": "GGAUCUUCUCGAUCUAACAAAAAAGACAAAUCUGCCACAAAGCUUGAGAGCAUCUUCGGAUGCAGAGGCGGCAGCCUUCGGUGGCGCGAUAGCGCCAACGUUCUCAACUAUGACACGCAAAACGCGUGCUCCGUUGAAUGGAGUUUAUCAUG"}}, "note": "Variants at the floor of the assay are shown more often than the library holds them.", "data": [{"variants_of": "B1", "assay": "polymerase ribozyme fitness, log enrichment relative to wild type (log ratio); higher = more active; in vitro selection for triplet polymerase activity", "procedure,_shortened": "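Mutant libraries for each subunit of a heterodimeric triplet polymerase ribozyme were made by PCR and then transcribed. Each library underwent one round of in vitro selection in triplicate: annealing with a biotinylated primer, the partner subunit and triplets, frozen incubation at −7 °C, gel excision of extended constructs, streptavidin-bead capture and RT-PCR. Input and output libraries were Illumina-sequenced, and only genotypes with ≥10 input reads and ≥1 read per output were kept. Fitness is the logarithm, base 2, of genotype enrichment over wild-type enrichment, computed from inverse-variance-weighted replicate averages.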", "values": [{"variant": "U4A A17C C18A A19G G59U C95G A115U C131U U139C", "polymerase ribozyme fitness (log ratio)": "≤ -4.2"}, {"variant": "U4A A17C G94A C149U", "polymerase ribozyme fitness (log ratio)": -1.61}, {"variant": "U4A A17G A29C G94C U102G A142U", "polymerase ribozyme fitness (log ratio)": "≤ -4.2"}, {"variant": "U4A A17U A22G C35U C75A C79A G92C", "polymerase ribozyme fitness (log ratio)": "≤ -4.2"}, {"variant": "U4A A17U A28G", "polymerase ribozyme fitness (log ratio)": "≤ -4.2"}, {"variant": "U4A A17U A40C A52G G58A C76G C93U U127G G141A", "polymerase ribozyme fitness (log ratio)": "≤ -4.2"}, {"variant": "U4A A17U C27G U77G C93G", "polymerase ribozyme fitness (log ratio)": "≤ -4.2"}, {"variant": "U4A A19C C87A A119G", "polymerase ribozyme fitness (log ratio)": "≤ -4.2"}, {"variant": "U4A A19U A30U C75U G94C", "polymerase ribozyme fitness (log ratio)": "≤ -4.2"}, {"variant": "U4A A19U C27U G86A C129U G152A", "polymerase ribozyme fitness (log ratio)": "≤ -4.2"}, {"variant": "U4A A19U G65U G74U A91U", "polymerase ribozyme fitness (log ratio)": "≤ -4.2"}, {"variant": "U4A A19U G128U U130A", "polymerase ribozyme fitness (log ratio)": "≤ -4.2"}, {"variant": "U4A A20G A37U C95G A107U A115G C123A U135C", "polymerase ribozyme fitness (log ratio)": "≤ -4.2"}, {"variant": "U4A A20G C35A U55G C72U C99U A120U U146A", "polymerase ribozyme fitness (log ratio)": "≤ -4.2"}, {"variant": "U4A A20G C93G", "polymerase ribozyme fitness (log ratio)": "≤ -4.2"}, {"variant": "U4A A20U G50C U55A A73G G84A G88C C132U U135A", "polymerase ribozyme fitness (log ratio)": "≤ -4.2"}, {"variant": "U4A A21U G34U C75G U90A C95G C103A C131G U134C A137U", "polymerase ribozyme fitness (log ratio)": "≤ -4.2"}, {"variant": "U4A A23G C57G G58C A60C U77A", "polymerase ribozyme fitness (log ratio)": "≤ -4.2"}, {"variant": "U4A A23U A37C G46C A47G G62A C116G A138G U139A U148A A150C", "polymerase ribozyme fitness (log ratio)": "≤ -4.2"}, {"variant": "U4A A24C C38A U53C C95U C132U", "polymerase ribozyme fitness (log ratio)": "≤ -4.2"}, {"variant": "U4A A24G G50U G83C C85U A98G", "polymerase ribozyme fitness (log ratio)": "≤ -4.2"}, {"variant": "U4A A24G U53A U55G G83U G84C C87U", "polymerase ribozyme fitness (log ratio)": "≤ -4.2"}, {"variant": "U4A A24U C57A C93U G94U G141U", "polymerase ribozyme fitness (log ratio)": -2.67}, {"variant": "U4A A29C C85U U134G G140C", "polymerase ribozyme fitness (log ratio)": "≤ -4.2"}, {"variant": "U4A A29U G46C G58C C69G C87U C118U", "polymerase ribozyme fitness (log ratio)": "≤ -4.2"}, {"variant": "U4A A30U A52U C93A", "polymerase ribozyme fitness (log ratio)": "≤ -4.2"}, {"variant": "U4A A37C A40C C87U U101G A115C G141C", "polymerase ribozyme fitness (log ratio)": "≤ -4.2"}, {"variant": "U4A A40G C85G U90G C99U U109G", "polymerase ribozyme fitness (log ratio)": "≤ -4.2"}, {"variant": "U4A A47G U55A A106G A113U A138G", "polymerase ribozyme fitness (log ratio)": "≤ -4.2"}, {"variant": "U4A A60C G71U G92C C108G G117A G124U A137C", "polymerase ribozyme fitness (log ratio)": "≤ -4.2"}, {"variant": "U4A A91G C114G G124A", "polymerase ribozyme fitness (log ratio)": "≤ -4.2"}, {"variant": "U4A A147C", "polymerase ribozyme fitness (log ratio)": -0.789}, {"variant": "U4A C5G A20U C51U C54G A142G U146A C149G", "polymerase ribozyme fitness (log ratio)": "≤ -4.2"}, {"variant": "U4A C5U C32A C54U G58A A73G G84A A91G A121U C125U U145C U146C", "polymerase ribozyme fitness (log ratio)": "≤ -4.2"}, {"variant": "U4A C5U G25C G80A C95U C96U C103U G126U U144A", "polymerase ribozyme fitness (log ratio)": "≤ -4.2"}, {"variant": "U4A C8A A12G G92A C95A", "polymerase ribozyme fitness (log ratio)": "≤ -4.2"}, {"variant": "U4A C8A A20U A29C A40G G70C U101A A120U", "polymerase ribozyme fitness (log ratio)": "≤ -4.2"}, {"variant": "U4A C8G U53G G71U A73G C79G C85G C87A G88U G92U A115G", "polymerase ribozyme fitness (log ratio)": "≤ -4.2"}, {"variant": "U4A C8G U61G U78A G88C A89C", "polymerase ribozyme fitness (log ratio)": "≤ -4.2"}, {"variant": "U4A C8U A24C C96U", "polymerase ribozyme fitness (log ratio)": "≤ -4.2"}, {"variant": "U4A C10A A40U C57A G71A G86U A107G", "polymerase ribozyme fitness (log ratio)": "≤ -4.2"}, {"variant": "U4A C10G A24U A37U C93U C114G C129U", "polymerase ribozyme fitness (log ratio)": "≤ -4.2"}, {"variant": "U4A C14A A22C G42A U45A C87G C103U", "polymerase ribozyme fitness (log ratio)": "≤ -4.2"}, {"variant": "U4A C14G U56G G84C C116U", "polymerase ribozyme fitness (log ratio)": "≤ -4.2"}, {"variant": "U4A C18G A37U A47G G70C U134A", "polymerase ribozyme fitness (log ratio)": "≤ -4.2"}, {"variant": "U4A C32U A40U G59U A60U U61G G68A C72G C87U G94C C95U", "polymerase ribozyme fitness (log ratio)": "≤ -4.2"}, {"variant": "U4A C32U U61A C93A A137C", "polymerase ribozyme fitness (log ratio)": "≤ -4.2"}, {"variant": "U4A C35A C85A A138C G143C U146A G152A", "polymerase ribozyme fitness (log ratio)": "≤ -4.2"}, {"variant": "U4A C36A A52C A73G C95U", "polymerase ribozyme fitness (log ratio)": "≤ -4.2"}, {"variant": "U4A C36A G48C G86A", "polymerase ribozyme fitness (log ratio)": "≤ -4.2"}, {"variant": "U4A C38A A47G G94U C118G C129A", "polymerase ribozyme fitness (log ratio)": "≤ -4.2"}, {"variant": "U4A C38U A41U G59A A137U", "polymerase ribozyme fitness (log ratio)": -4.07}, {"variant": "U4A C38U C57A A66G C96G C105A C123G G124A C129G", "polymerase ribozyme fitness (log ratio)": "≤ -4.2"}, {"variant": "U4A C43U G65U U77C U111G", "polymerase ribozyme fitness (log ratio)": "≤ -4.2"}, {"variant": "U4A C54U G92U C118U U134A", "polymerase ribozyme fitness (log ratio)": -3.6}, {"variant": "U4A C54U U56A C79G C85U C103G C116U G143C", "polymerase ribozyme fitness (log ratio)": "≤ -4.2"}, {"variant": "U4A C57A C75G U134G", "polymerase ribozyme fitness (log ratio)": "≤ -4.2"}, {"variant": "U4A C57U A60C C76A G86A U102G C108G C118G A120U", "polymerase ribozyme fitness (log ratio)": "≤ -4.2"}, {"variant": "U4A C85A A106G U135G A142U", "polymerase ribozyme fitness (log ratio)": "≤ -4.2"}, {"variant": "U4A C85G C93G", "polymerase ribozyme fitness (log ratio)": "≤ -4.2"}, {"variant": "U4A C85U", "polymerase ribozyme fitness (log ratio)": -1.53}, {"variant": "U4A G11A A28U G65A C72U G80U G84C A91C A97C A106C C118U G141U", "polymerase ribozyme fitness (log ratio)": "≤ -4.2"}, {"variant": "U4A G11C A41U G50C G58A G59U U82C C87U G92U G140A", "polymerase ribozyme fitness (log ratio)": "≤ -4.2"}, {"variant": "U4A G48A C85A C93A A147C", "polymerase ribozyme fitness (log ratio)": "≤ -4.2"}, {"variant": "U4A G48U C57G C93U G136A U146G", "polymerase ribozyme fitness (log ratio)": -2.55}, {"variant": "U4A G50A A52U A66C C85A", "polymerase ribozyme fitness (log ratio)": "≤ -4.2"}, {"variant": "U4A G50C U56G C85G C105A C108G U127C", "polymerase ribozyme fitness (log ratio)": "≤ -4.2"}, {"variant": "U4A G59A", "polymerase ribozyme fitness (log ratio)": -1.06}, {"variant": "U4A G62C C63U C79A C85U A98U C99U C131A U135C U144A", "polymerase ribozyme fitness (log ratio)": "≤ -4.2"}, {"variant": "U4A G74A U77C G83U C96U", "polymerase ribozyme fitness (log ratio)": "≤ -4.2"}, {"variant": "U4A G94A", "polymerase ribozyme fitness (log ratio)": -0.663}, {"variant": "U4A G143U", "polymerase ribozyme fitness (log ratio)": -3.47}, {"variant": "U4A U6A U7G G11A U31G C35G G58A C85G G126C", "polymerase ribozyme fitness (log ratio)": "≤ -4.2"}, {"variant": "U4A U6G A26C C36U G46C U55A G92U", "polymerase ribozyme fitness (log ratio)": "≤ -4.2"}, {"variant": "U4A U7A C14G A30C A39U U56A C116U G141U G143A U148G", "polymerase ribozyme fitness (log ratio)": "≤ -4.2"}, {"variant": "U4A U7A U55A U61A C76A G94A", "polymerase ribozyme fitness (log ratio)": "≤ -4.2"}, {"variant": "U4A U7G A23U A28U U53A U82A G92A A120G", "polymerase ribozyme fitness (log ratio)": "≤ -4.2"}, {"variant": "U4A U7G G84U G92C U148G", "polymerase ribozyme fitness (log ratio)": "≤ -4.2"}, {"variant": "U4A U13A A29C G50C A64C C93G U102A", "polymerase ribozyme fitness (log ratio)": "≤ -4.2"}, {"variant": "U4A U13A U78C G94U C116G U151A", "polymerase ribozyme fitness (log ratio)": "≤ -4.2"}, {"variant": "U4A U13G C35G U55A C76A G140A", "polymerase ribozyme fitness (log ratio)": "≤ -4.2"}, {"variant": "U4A U15G A29U A49G G50C U56A C79U G84U A98C U146A", "polymerase ribozyme fitness (log ratio)": "≤ -4.2"}, {"variant": "U4A U31C A41G A47C C57A C87G C95U U148A", "polymerase ribozyme fitness (log ratio)": "≤ -4.2"}, {"variant": "U4A U44A G50C G67A G92U C96G A147U", "polymerase ribozyme fitness (log ratio)": "≤ -4.2"}]}]}
